# From the supplement of paper PMC4166925
# ± gives the standard deviation of the averaged measurements. The full ranking holds about 33,000 sequences; the median of “E-score (dimensionless, -0.5 to 0.5)” is about -0.049, and the highest 2% start at about 0.37. This is one part of the list.
# Test system: T1, PmTbr T-box DNA-binding domain (GST fusion)
# T1 sequence: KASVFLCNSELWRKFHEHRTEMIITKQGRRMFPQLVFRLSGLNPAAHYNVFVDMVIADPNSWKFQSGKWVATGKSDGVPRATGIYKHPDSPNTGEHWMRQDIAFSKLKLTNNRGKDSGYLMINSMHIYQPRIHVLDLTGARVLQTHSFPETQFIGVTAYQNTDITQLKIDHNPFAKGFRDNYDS
# Assay: PBM E-score of 8-mer (E-score (dimensionless, -0.5 to 0.5)); Tbr is Tbrain of the sea star Patiria miniata (Pm) or the sea urchin Strongylocentrotus purpuratus (Sp); higher = stronger binding preference; most listed sequences are background and not binding sites
# Conditions: the construct has about 5 more residues each side
# Outline: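 Each ungapped 8-mer received an enrichment E-score from the Universal PBM Analysis Suite, averaged over duplicate arrays. The proteins were Tbr T-box DNA-binding domains, covering the whole T-box plus about five flanking residues, fused to GST and expressed in BL21 E. coli at 20 °C before glutathione affinity purification. Universal Agilent oligonucleotide arrays were made double-stranded by primer extension and incubated with 200 nM protein in PBS (pH 7.5). The arrays were then scanned and quantified, and every 8-mer was scored from probe intensities.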
row,Sequence,PBM E-score of 8-mer
1,GAGGCGGA,-0.0991 ± 0.032
2,AAGTACCC,-0.182 ± 0.0063
3,CATATATC,-0.239 ± 0.019
4,GCCCACGA,-0.119 ± 0.039
5,AATACCCG,-0.169 ± 0.034
6,CTGGCAAA,-0.112 ± 0.084
7,ATCTTCGA,-0.122 ± 0.046
8,GTGCGATA,0.4351 ± 0.0025
9,ACTCCAAT,-0.0298 ± 0.0073
10,GCGTGAAA,0.4552 ± 0.0024
11,TCCTCCAA,-0.203 ± 0.012
12,CTGAACTC,0.0605 ± 0.035
13,GAGTGTGC,0.2606 ± 0.00088
14,ATGACTGC,-0.165 ± 0.0095
15,ACTATGTA,0.0559 ± 0.034
16,ATGACTTG,-0.00579 ± 0.055
17,CCCCAAGC,-0.0824 ± 0.04
18,CGGCCGAG,-0.158 ± 0.0019
19,ACAACGCC,0.121 ± 0.0096
20,TCAATAGA,-0.0309 ± 0.03
21,GAGAATGC,0.0915 ± 0.015
22,CCTAGGGA,-0.233 ± 0.015
23,CACAATTC,0.282 ± 0.039
24,GAGCGCCC,-0.177 ± 0.019
25,TACATAAA,-0.175 ± 0.11

row,Sequence,PBM E-score of 8-mer
1,AGCGAGTC,0.0123 ± 0.0052
2,AGTGCAAG,0.149 ± 0.018
3,ATGGCCTC,-0.263 ± 0.037
4,AACCGAGC,-0.124 ± 0.016
5,GTACGGTA,-0.1632 ± 0.0011
6,GGCAGGAA,0.054 ± 0.081
7,ATCCGAAA,-0.0422 ± 0.023
8,ACCAAGAC,0.0491 ± 0.0073
9,GTAGGGAC,-0.259 ± 0.04
10,ACTGGTGC,0.111 ± 0.026
11,GAGGCGGC,0.00737 ± 0.076
12,TAGCCTAA,-0.0562 ± 0.0074
13,CATATGAG,-0.0783 ± 0.018
14,AGCTATAT,0.0347 ± 0.08
15,CGCTGAAA,-0.111 ± 0.018
16,CCCTTCCC,-0.226 ± 0.031
17,TCAATTCA,0.0638 ± 0.11
18,GCCTCCTA,-0.0651 ± 0.085
19,GGGCGAGA,0.194 ± 0.052
20,CTCTTCGA,0.0447 ± 0.035
21,CCGCGAGG,0.0357 ± 0.059
22,AGTCTCCC,-0.191 ± 0.04
23,AGCGGACG,-0.118 ± 0.011
24,AAAAAACC,-0.116 ± 0.029
25,TGGGACCA,-0.185 ± 0.03

row,Sequence,PBM E-score of 8-mer
1,AGAGCCAA,-0.0363 ± 0.023
2,GCTGGACA,0.0434 ± 0.024
3,CTCCATAA,-0.321 ± 0.0041
4,CTAAGACC,-0.171 ± 0.056
5,AAGTGCCG,0.289 ± 0.025
6,GCGTGCAA,0.146 ± 0.044
7,CAGGAAGC,-0.312 ± 0.045
8,AGATGTCC,-0.322 ± 0.016
9,AGTGCCAC,0.287 ± 0.014
10,AAAACCGG,-0.14 ± 0.039
11,AAGCTGGG,-0.0961 ± 0.045
12,GAGTAAAA,-0.0459 ± 0.021
13,ACTAAATG,0.0104 ± 0.0037
14,AAAACTGG,0.0465 ± 0.035
15,ACCTCGCC,0.34 ± 0.0081
16,TATACATA,-0.073 ± 0.021
17,CGAAGCAC,-0.076 ± 0.014
18,ACAGCACT,0.15 ± 0.015
19,CGGGACAC,0.16 ± 0.057
20,CAATGTTA,-0.135 ± 0.023
21,GCTTTCTA,-0.0965 ± 0.11
22,AACTAATT,-0.293 ± 0.049
23,CGTCGTTA,0.0788 ± 0.011
24,CACACAAG,0.113 ± 0.06
25,GGCGACCA,-0.156 ± 0.027

row,Sequence,PBM E-score of 8-mer
1,GGCTGTTA,0.0706 ± 0.024
2,GTAGAACA,-0.0515 ± 0.048
3,AATAGCCT,-0.00864 ± 0.017
4,ACAGCATG,0.0977 ± 0.0076
5,GCTTTAGA,-0.109 ± 0.055
6,AGGATATA,-0.188 ± 0.019
7,CCAGTGTA,-0.108 ± 0.014
8,CACACATC,0.381 ± 0.035
9,CCATCTGA,-0.00559 ± 0.0058
10,CAAGCAAA,-0.0897 ± 0.031
11,TTCAAAAA,-0.195 ± 0.071
12,TAAGCTTA,-0.274 ± 0.053
13,TGGAGACA,-0.115 ± 0.046
14,GTCGGACA,-0.198 ± 0.053
15,TCAGTTAA,-0.0558 ± 0.064
16,ACTGCATG,-0.193 ± 0.049
17,AACGCCGC,0.0722 ± 0.024
18,CCCTATAG,-0.114 ± 0.033
19,GTAGTAAC,0.0291 ± 0.046
20,GATCCAAC,0.00494 ± 0.035
21,CGTTTACC,-0.0859 ± 0.018
22,CTGAGCAG,-0.226 ± 0.037
23,CTTACAAC,0.0594 ± 0.04
24,CGGGTGAC,0.317 ± 0.0073
25,GCGACGCC,0.262 ± 0.048

row,Sequence,PBM E-score of 8-mer
1,AACTTCCT,-0.146 ± 0.014
2,CAGTAGAA,-0.0987 ± 0.033
3,CTATTCTA,-0.0358 ± 0.035
4,AGAATATG,0.00662 ± 0.0032
5,GCCGTCAC,0.293 ± 0.066
6,CACAAGGA,-0.215 ± 0.06
7,ACTGGGGG,-0.277 ± 0.017
8,AATTGCGG,-0.0866 ± 0.029
9,GTTCGAGA,0.00126 ± 0.025
10,ATAAAGCC,-0.221 ± 0.014
11,CGATAGGC,0.0593 ± 0.033
12,CTTCATCA,0.0276 ± 0.042
13,CCCGGAGA,-0.0812 ± 0.065
14,CGTGAAAA,0.338 ± 0.026
15,GCTGACGA,0.116 ± 0.034
16,GCGTGCGA,0.285 ± 0.02
17,GGAGGAAA,-0.249 ± 0.059
18,GTGCTGCA,0.0668 ± 0.059
19,ATCAGGGC,-0.084 ± 0.023
20,GATAACAC,0.4169 ± 0.0014
21,CAAGAATG,-0.104 ± 0.029
22,ACATACAC,0.0835 ± 0.075
23,AGGTATCC,-0.121 ± 0.035
24,AGGGACTA,-0.0767 ± 0.046
25,ATGGTGAC,0.262 ± 0.049

row,Sequence,PBM E-score of 8-mer
1,AATTCCCG,-0.0976 ± 0.067
2,CAGAACTC,-0.153 ± 0.021
3,AATGATGG,-0.161 ± 0.091
4,AGACAAAA,-0.193 ± 0.081
5,ATGCTGGA,-0.328 ± 0.041
6,CACCGCAA,0.0187 ± 0.075
7,GCTCCTCC,-0.291 ± 0.022
8,GCACTCGC,0.168 ± 0.041
9,GCAGCGGA,-0.216 ± 0.026
10,AAGTGACA,0.458 ± 0.0065
11,AATCTCAA,-0.1 ± 0.067
12,CCACCTCA,0.229 ± 0.039
13,ACTTAGCA,0.207 ± 0.052
14,GGTGTTAC,0.4752 ± 0.00012
15,AACACGAC,0.13 ± 0.049
16,GAGCTTCC,-0.248 ± 0.027
17,CATCCATA,-0.26 ± 0.036
18,CCTCCGCA,-0.0772 ± 0.12
19,ACAATCGG,-0.0233 ± 0.062
20,GCATTGAC,-0.124 ± 0.12
21,CACAGGAA,-0.12 ± 0.015
22,GCTAGCAC,0.33 ± 0.0063
23,TACCCATA,-0.104 ± 0.024
24,AGATAGCC,-0.294 ± 0.041
25,CCCGACGC,0.102 ± 0.038

row,Sequence,PBM E-score of 8-mer
1,CGCAGACC,-0.244 ± 0.063
2,ATCTTCTG,-0.262 ± 0.01
3,GGGATCAC,-0.124 ± 0.12
4,CGGCCCTC,-0.183 ± 0.034
5,AGTAACGG,-0.0166 ± 0.062
6,CCGATAGC,0.134 ± 0.037
7,AGGAGTAT,-0.229 ± 0.016
8,AACATGGA,-0.0742 ± 0.0047
9,GGGATAGA,-0.0727 ± 0.018
10,GATGTGCC,0.148 ± 0.049
11,GACCTGGC,-0.00364 ± 0.055
12,AAGAAGAC,-0.246 ± 0.033
13,CACAGTGG,0.0493 ± 0.042
14,GGACCGAC,-0.276 ± 0.0089
15,CAGAATTC,-0.101 ± 0.079
16,AACCCACA,0.275 ± 0.048
17,CCCGATCA,-0.0612 ± 0.05
18,GGCGTACA,-0.238 ± 0.0082
19,ATATTCAC,0.276 ± 0.07
20,ACGACTTC,0.0199 ± 0.053
21,CCACGTCC,-0.0664 ± 0.053
22,CACTTATC,0.3 ± 0.034
